Laboratory results reported in publication PMC12627862, “Therapeutic targeting of endothelial calcium signaling accelerates the resolution of lung injury” (Signal Transduction and Targeted Therapy, 2025).
Starred links: 1 amine or outer side, 2 acyl side, 3 side chain; linkers in the order of their positions; H or OH if unused. Positions of bridges follow the written chain, without caps; N, C: chain ends. Non-standard residues stand in square brackets, D forms with d. Residues, ends and D or L forms follow the SMILES beside them. ξ: configuration not given here. X2 = C[C@@](CCCCC=[*:3])(N[*:1])C(=O)[*:2]; Oic = O=C(O)[C@@H]1C[C@@H]2CCCC[C@@H]2N1; GABOB(3R) = O=C(C[C@@H](O)CN[*:1])[*:2]; d(tBuAla) = CC(C)(C)C[C@@H](N)C(=O)O; dVal(3-OH) = CC(C)(O)[C@@H](N)C(=O)O; tBuAla = CC(C)(C)C[C@H](N)C(=O)O; ξVal(3-OH) = CC(C)(O)C(N)C(=O)O; R5 = C=CCCC[C@@](C)(N)C(=O)O; X1 = O=C(CC(O)CN[*:1])[*:2]; 4Amb = NCc1ccc(C(=O)O)cc1

Tests used:
[1] = system: calcium release from ER stores in primary HLMVECs; test: Cytosolic calcium measurements (Fluo-4), α-thrombin-induced release; conditions: read-out: IC50, calcium release from ER stores; Fluo-4, primary HLMVECs, 50 nM α-thrombin, nominal calcium-free environment; n = 3 independent experiments
[2] = system: mouse alveolar type 2 (AT2) epithelial cells; test: AT2 cell calcium imaging assay; conditions: primary mouse AT2 cells, 1 hour exposure, 100 µM ATP, Fluo-4
[3] = system: CD1 mice, cecal ligation and puncture; test: Polymicrobial sepsis model (CLP); format: in vivo, mouse; conditions: FOXM1ΔiEC mice, CLP 18-gauge, 24 hours, 2 µmol/kg bw

Compound	IC50 [1] [µM]	amplitude of ATP-stimulated Ca2+ release [2]	vascular leakage (EBA extravasation) [3]
CC(C)(C)C[C@@H]1NC(=O)[C@](C)(NC(=O)c2ccc(CNC(=O)[C@H](N)C(C)(C)O)cc2)CCC/C=C\CCCC[C@@](C)(C(=O)N[C@H](CC(C)(C)C)C(=O)O)NC(=O)CC(O)CNC(=O)[C@@H]2C[C@@H]3CCCC[C@@H]3N2C1=O (stereo partly drawn) [compound 108, (2R)-2-((8S,18R,21S,23aS,27aS,28aS,Z)-18-(4-(((R)-2-amino-3-hydroxy-3-methylbutanamido)methyl)benzamido)-4-hydroxy-8,18-dimethyl-21-neopentyl-1,6,19,22-tetraoxo-1,2,3,4,5,6,7,8,9,10,11,12,15,16,17,18,19,20,21,22,23a,24,25,26,27,27a,28,28a-octacosahydro-[1,4,7,12]tetraazacyclotetracosino[4,5-a]indole-8-carboxamido)-4,4-dimethylpentanoic acid] (H-[dVal(3-OH)][4Amb][R5][tBuAla][Oic][X1][X2][d(tBuAla)]-OH; staple (Z) 3-7)	0.1297 ± 0.00033	–	–
CC(C)(C)C[C@@H]1NC(=O)C[C@@H](O)CNC(=O)[C@@H]2C[C@@H]3CCCC[C@@H]3N2C(=O)[C@H](CC(C)(C)C)NC(=O)c2ccc(cc2)CNC(=O)C(C(C)(C)O)NC(=O)[C@@H](Cc2ccccc2)NC1=O (stereo partly drawn) [compound 109, (1^2S,1^3aS,1^7aS,3S,10S,13R,16S,20R)-13-benzyl-20-hydroxy-10-(2-hydroxypropan-2-yl)-3,16-dineopentyl-1^2,1^3,1^3a,1^4,1^5,1^6,1^7,1^7a-octahydro-1^1H-4,8,11,14,17,22-hexaaza-1(1,2)-indola-6(1,4)-benzenacyclotricosaphane-2,5,9,12,15,18,23-heptaone.] (cyclo([4Amb][tBuAla][Oic][GABOB(3R)][tBuAla][dF][ξVal(3-OH)]))	0.1098 ± 0.00026	no effect	did not reduce vascular leakage
